# In PubChem BioAssay AID504332 (National Center for Advancing Translational Sciences (NCATS), 2011):
# Out of some 350,000 compounds screened, about 31,000 (8.9%) were called active. The shares of active, inactive and inconclusive entries below differ from those in the screen. Calls follow the shape of the dose curve; as a rule, active = well fitted inhibition curve with a large enough effect; inconclusive = small, poorly fitted or top-dose-only effect; inactive = no such curve, though single readings can be large or run the other way. Potencies beside an inconclusive call are fits to weak or partial responses and may not hold up. Some structures have more than one record in an assay (separate samples or runs), and their calls can disagree.
# Target: Histone-lysine N-methyltransferase EHMT2 (Homo sapiens) (UniProt Q96KQ7)
# Sequence of UniProt Q96KQ7 (Q96KQ7 whole entry, looked up): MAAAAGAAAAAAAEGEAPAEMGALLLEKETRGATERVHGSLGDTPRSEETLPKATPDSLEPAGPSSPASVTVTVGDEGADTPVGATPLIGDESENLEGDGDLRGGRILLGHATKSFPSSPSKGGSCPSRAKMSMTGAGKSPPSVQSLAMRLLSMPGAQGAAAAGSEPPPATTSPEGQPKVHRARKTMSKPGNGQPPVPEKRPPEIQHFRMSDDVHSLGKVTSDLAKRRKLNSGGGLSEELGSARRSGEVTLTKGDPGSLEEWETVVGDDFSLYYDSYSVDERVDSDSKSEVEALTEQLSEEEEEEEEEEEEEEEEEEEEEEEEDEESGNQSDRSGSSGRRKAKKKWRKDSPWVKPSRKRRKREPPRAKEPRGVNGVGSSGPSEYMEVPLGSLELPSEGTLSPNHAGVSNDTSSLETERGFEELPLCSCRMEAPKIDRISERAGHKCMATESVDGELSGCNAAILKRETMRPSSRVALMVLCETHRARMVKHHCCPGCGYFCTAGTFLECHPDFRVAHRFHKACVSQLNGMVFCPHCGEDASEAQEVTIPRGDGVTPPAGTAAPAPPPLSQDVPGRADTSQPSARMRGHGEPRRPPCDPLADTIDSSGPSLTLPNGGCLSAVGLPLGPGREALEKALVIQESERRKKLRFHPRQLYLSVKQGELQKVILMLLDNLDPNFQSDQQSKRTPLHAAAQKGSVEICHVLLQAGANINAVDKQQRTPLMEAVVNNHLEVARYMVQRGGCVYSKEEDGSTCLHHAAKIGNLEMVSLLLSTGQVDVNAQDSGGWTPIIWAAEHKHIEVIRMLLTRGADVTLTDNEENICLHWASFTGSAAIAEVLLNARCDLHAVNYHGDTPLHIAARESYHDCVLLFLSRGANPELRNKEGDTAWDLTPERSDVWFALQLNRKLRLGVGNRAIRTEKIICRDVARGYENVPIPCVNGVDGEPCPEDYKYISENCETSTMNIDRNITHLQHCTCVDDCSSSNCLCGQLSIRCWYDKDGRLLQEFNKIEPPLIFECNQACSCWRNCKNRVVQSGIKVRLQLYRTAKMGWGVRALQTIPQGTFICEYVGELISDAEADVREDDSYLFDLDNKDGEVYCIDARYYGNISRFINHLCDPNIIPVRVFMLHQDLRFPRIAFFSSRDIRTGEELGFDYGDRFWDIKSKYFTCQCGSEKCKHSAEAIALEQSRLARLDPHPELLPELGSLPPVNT
# Test: qHTS Assay for Inhibitors of Histone Lysine Methyltransferase G9a; also: nearly all actives have a fitted effect of over 75% in size
# Conditions: G9a H3K9 monomethylation, AlphaScreen, 2 h; activity, negative = inhibition: at 59 µM (top of the series) unless noted
# Summary of the method: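 Signal arises when biotinylated H3K9 peptide, once monomethylated, bridges streptavidin donor and antibody-captured acceptor beads. Enzyme at 20 nM was preincubated 15 min with test compounds; peptide 500 nM and SAM 20 uM then reacted for 2 h.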
# % is scaled to controls: 0 for no effect and ±100 for the full control effect; potency is read from the fitted curve at half-maximal effect; tags tell the direction and shape of the fitted curve.
SMILES,Potency,"activity, negative = inhibition"
Cc1ccc(C(=O)N2CCn3c(C)ccc3C2C)cc1 (stereo not drawn),"inconclusive: 39.8 µM [inhibitor, partial curve, poor fit]",–
O=C(O)COc1ccccc1/C=N/NC(=O)CSc1nc2ccccc2s1,active: 70.8 µM,–
CCN(CC)CCCC(C)Nc1ccnc2cc(Cl)ccc12 (stereo not drawn),active: 25.1 µM,–
CCOC(=O)CSC1=NC(=O)CS1,"inconclusive: 22.4 µM [inhibitor, single point]",–
Cn1c(=O)cc(SCC(=O)NCCC2=CCCCC2)c2ccc(Cl)cc21,–,inactive: 6.77%
CCOC(=O)C1=C(O)C(=O)NC(c2ccccc2)=C(OC2CCCCC2)C1,active: 50.1 µM,–
COc1ccc(N2CCN(C(=O)C3Cc4ccccc4N3C(C)=O)CC2)cc1 (stereo not drawn),–,inactive: -8.11%
CCN1CCN(C(=S)Nc2ccc3nc(N4CCN(CC)CC4)cc(C)c3c2)CC1,active: 20 µM,–
Cc1c(Cl)cccc1NC(=O)CSc1ccc(-c2ccccn2)nn1,–,inactive: -6.06%
CCC(CC)c1nnc(NC(=O)C2CCCO2)s1 (stereo not drawn),"inconclusive: 25.1 µM [inhibitor, single point]",–
CC(=O)Oc1ccc(/C=c2\sc3ncnn3c2=O)cc1,"inconclusive: 39.8 µM [inhibitor, full curve, poor fit]",–
COc1ccc(S(=O)(=O)N2CCCCC2)cc1NC(=O)C1CC1,"inconclusive: 0.631 µM [inhibitor, partial curve, poor fit]",–
Cc1ccc2nsnc2c1NC(=O)c1ccc(-c2cc(Cl)ccc2Cl)o1,"inconclusive: 22.4 µM [inhibitor, partial curve, poor fit]",–
O=C(C1=C[C@H](c2csc3ccccc23)C[C@H](OCCCCO)O1)N1CCN(Cc2ccc3c(c2)OCO3)CC1,–,inconclusive: -71.9% [inhibitor]
COc1cccc(C(=O)NNC(=O)c2ccccc2)c1,"inconclusive: 79.4 µM [inhibitor, single point]",–
CSc1sc(C)cc1C1C(C#N)=C(N)N(c2cccnc2)C2=C1C(=O)CCC2 (stereo not drawn),"inconclusive: 89.1 µM [inhibitor, single point]",–
C/C(=C\C(=O)c1cccnc1)Nc1ccc(C)c(C)c1,"inconclusive: 39.8 µM [inhibitor, partial curve, poor fit]",–
CN1C(=O)C(C)(C)c2cc(S(=O)(=O)NCC3CCC(C(=O)NCc4ccccc4)CC3)ccc21 (stereo not drawn),"inconclusive: 70.8 µM [inhibitor, single point]",–
O=C(Cn1ccc2cc(S(=O)(=O)N3CCCC3)ccc21)NCc1ccccc1,–,inactive: 10.8% [at 102 µM]
CC(NC(=O)c1ccccc1)c1nnc(SCC(=O)NC2=NCCS2)n1C (stereo not drawn),"inconclusive: 79.4 µM [inhibitor, single point]",–
CCOC(=O)c1ccc(N2C(=O)CC(SCC(N)C(=O)OCC)C2=O)cc1 (stereo not drawn),"inconclusive: 3.55 µM [inhibitor, partial curve, poor fit]",–
Cc1ccc(C(=O)NNC(=O)c2cccnc2SCc2cccc([N+](=O)[O-])c2)cc1,"inconclusive: 89.1 µM [inhibitor, single point]",–
Cc1ccc2cccc(NC(=O)c3cccc4c(Br)cccc34)c2n1,–,inactive: 30.3%

SMILES,Potency,"activity, negative = inhibition"
CCC1CCCN1Cn1cnc2c([nH]c3ccccc32)c1=O (stereo not drawn),–,inconclusive: -65.3% [inhibitor]
COc1ccc(CC(=O)Nc2cccc(S(=O)(=O)N3CCCCC3)c2)cc1,"inconclusive: 17.8 µM [inhibitor, single point]",–
NC(=O)c1ccc(Nc2nnc(-c3ccc(O)cc3)c3ccccc23)cc1,"inconclusive: 44.7 µM [inhibitor, partial curve]",–
O=C(CN1CCN(c2ccccc2F)CC1)c1ccc2cc[nH]c2c1,active: 25.1 µM,–
CCn1c(CNS(=O)(=O)c2ccc(Br)cc2)n[nH]c1=S,active: 35.5 µM,–
CN(CCOc1ccccc1)C(=O)c1cc([N+](=O)[O-])cc([N+](=O)[O-])c1,"inconclusive: 79.4 µM [inhibitor, single point]",–
COc1ccccc1N1CCN(C(=O)c2ccc(CN3CCOCC3)cc2)CC1,–,inactive: -4.82% [at 102 µM]
N#Cc1c(-c2ccccc2)c(C#N)c2nc3ccccc3n2c1N,"inconclusive: 22.4 µM [inhibitor, single point]",–
O=[N+]([O-])c1cc(C(F)(F)F)ccc1N1CCCC(O)C1 (stereo not drawn),"inconclusive: 79.4 µM [inhibitor, partial curve, poor fit]",–
Cc1nnc(SCC(=O)N2CC(=O)Nc3ccccc32)n1-c1ccccc1,"inconclusive: 50.1 µM [inhibitor, partial curve, poor fit]",–
COc1ccc(N2CCN(C(=O)c3ccc4c(c3)N(Cc3cccc(Cl)c3)C(=O)c3ccccc3S4(=O)=O)CC2)cc1,"inconclusive: 7.08 µM [inhibitor, partial curve, poor fit]",–
Cc1ccccc1C(=O)Nc1cc2c(cc1N1CCCCC1)n(C)c(=O)n2C,active: 15.8 µM,–
CCOc1ccccc1NC(=O)[C@@H](NC(=O)c1cccc(S(=O)(=O)N2CCOCC2)c1)C(C)C,"inconclusive: 12.6 µM [inhibitor, partial curve, poor fit]",–
Cc1ccc2nc(N3CCN(C=O)CC3)nc(-c3ccccc3)c2c1,–,inactive: 75%
CCN(CC)Cc1c(C(=O)N/N=C/c2cccc(OCc3ccc(F)cc3)c2)nnn1-c1nonc1N,"inconclusive: 89.1 µM [inhibitor, single point]",–
CCOC(=O)N1CCN(C(=O)Cc2cccc3ccccc23)CC1,"inconclusive: 0.398 µM [inhibitor, partial curve, poor fit]",–
Cc1ccc(NC2CCCN(C(=O)c3cnsn3)C2)cc1C (stereo not drawn),"inconclusive: 31.6 µM [inhibitor, partial curve, poor fit]",–
CCOC(=O)c1c(C)c(C(=O)NCc2ccccc2OC)c(C)n1C,–,inconclusive: -110% [inhibitor]
CN(Cc1cccs1)C(=O)c1cc(S(=O)(=O)N2CCOCC2)ccc1N1CCCC1,–,inactive: -2.87% [at 2.33 µM]
CC1CN(S(=O)(=O)c2ccc(NC(=O)c3ccco3)cc2)CC(C)O1 (stereo not drawn),"inconclusive: 89.1 µM [inhibitor, single point]",–
CC(Oc1ccc2c(c1)c1ccnc3c4ccccc4c(=O)n2c13)C(=O)NCCN1CCOCC1 (stereo not drawn),"inconclusive: 35.5 µM [inhibitor, single point]",–
COCCCn1[nH]c2c3c(ccc2c1=O)C(=O)c1ccccc1C3=O,active: 7.08 µM,–
CN1CCN(C(=O)c2cc3c(s2)-c2ccccc2S(=O)(=O)C3)CC1,"inconclusive: 22.4 µM [inhibitor, single point]",–

SMILES,Potency,"activity, negative = inhibition"
O=C(c1cccnc1)n1nc(-c2ccco2)nc1NCc1cccs1,"inconclusive: 50.1 µM [inhibitor, partial curve, poor fit]",–
S=C(NCCN1CCCCC1)Nc1ccccc1,"inconclusive: 28.2 µM [inhibitor, partial curve, poor fit]",–
C=C(C)c1cccc(C(C)(C)NC(=O)N2CCN(c3ccc(OC)cc3)CC2)c1,"inconclusive: 7.94 µM [inhibitor, full curve, poor fit]",–
CNC(=S)Nc1ccc(C)c(NC(=S)NC)c1,active: 28.2 µM,–
O=c1[nH]cccc1-c1nc2cc(Cl)ccc2n1Cc1ccccc1,active: 70.8 µM,–
Cn1c(=O)c2c(nc(CN3CCN(C(=O)c4ccco4)CC3)n2Cc2ccc(Cl)cc2)n(C)c1=O,active: 50.1 µM,–
Cc1ccc(-n2nc(C)c3c2OC(N)=C(C#N)C3c2ccc(C)o2)cc1 (stereo not drawn),active: 8.91 µM,–
C=CCOc1cccc(C2/C(=C(/O)c3ccc(Cl)cc3)C(=O)C(=O)N2CCN2CCOCC2)c1 (stereo not drawn),active: 17.8 µM,–
COc1ccc(-c2noc(CCC(=O)Nc3cccc(C)c3C)n2)cc1OC,"inconclusive: 22.4 µM [inhibitor, partial curve, poor fit]",–
CC(C)CN(CC(C)C)C1=N/C(=C\c2ccco2)C(=O)N1c1ccccc1,"inconclusive: 79.4 µM [inhibitor, single point]",–
CCc1cccc(NC(=O)Nc2cn(C)c(=O)c3ccccc23)c1,"inconclusive: 22.4 µM [inhibitor, single point]",–
Fc1ccc(-n2c(-c3cc(C4CC4)[nH]n3)n[nH]c2=S)cc1Cl,active: 1.58 µM,–
CC1=NN(c2ccccc2)C(=O)/C1=C/c1c(O)n(-c2ccc(F)c(Cl)c2)[nH]c1=O,"inconclusive: 28.2 µM [inhibitor, single point]",–
CCc1ccc(CNC(=O)CC2C(=O)NCCN2Cc2ccccc2F)nc1 (stereo not drawn),active: 79.4 µM,–
CN1CCc2c(sc(NC(=O)CS(=O)(=O)c3ccc(F)cc3)c2C(N)=O)C1,active: 50.1 µM,–
O=C(CCCN1C(=O)/C(=C/c2ccccc2)SC1=S)Nc1ccccc1O,–,inactive: -44.5% [at 102 µM]
COc1ccc(C2Nc3ccc4ccccc4c3-c3c2c(=O)oc2ccccc32)cc1 (stereo not drawn),"inconclusive: 39.8 µM [inhibitor, single point]",–
COc1ccc(OC)c(-n2cnc3cc(C(=O)O)ccc32)c1,"inconclusive: 31.6 µM [inhibitor, single point]",–
O=C(Oc1c(CN2CCOCC2)cc(Cl)c2cccnc12)c1ccccc1Br,–,inactive: -7.07% [at 102 µM]
CCOC(=O)C1=C(C)NC(=S)NC1c1ccc(OC(=O)c2ccco2)cc1 (stereo not drawn),"inconclusive: 89.1 µM [inhibitor, single point]",–
COc1ccc(-n2c(=O)c3c4c(sc3n(Cc3ccc(C)cc3C)c2=O)CCC4)c(OC)c1,"inconclusive: 10 µM [inhibitor, partial curve, poor fit]",–
CCCCCNc1nc(NCCCO)c(C#N)c2c1CN(C)CC2,–,inactive: 20.5% [at 12.7 µM]
